# In paper PMC4336329 (PLoS ONE, 2015):
# The whole screen tested about 310,000 compounds, of which about 14,000 (4.5%) showed an effect of 50% or more. The effect is printed as a negative number. The list shows a part of the results.
# Target: human ether-à-go-go-related gene (hERG) potassium channel (human, UniProt Q12809)
# Assay: primary screen, population patch clamp on CHO cells stably expressing hERG
# 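Also: peak tail current of the secondary pulse compared with the same well before compound.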
# human ether-à-go-go-related gene (hERG) potassium channel, sequence (Q12809 whole entry, looked up): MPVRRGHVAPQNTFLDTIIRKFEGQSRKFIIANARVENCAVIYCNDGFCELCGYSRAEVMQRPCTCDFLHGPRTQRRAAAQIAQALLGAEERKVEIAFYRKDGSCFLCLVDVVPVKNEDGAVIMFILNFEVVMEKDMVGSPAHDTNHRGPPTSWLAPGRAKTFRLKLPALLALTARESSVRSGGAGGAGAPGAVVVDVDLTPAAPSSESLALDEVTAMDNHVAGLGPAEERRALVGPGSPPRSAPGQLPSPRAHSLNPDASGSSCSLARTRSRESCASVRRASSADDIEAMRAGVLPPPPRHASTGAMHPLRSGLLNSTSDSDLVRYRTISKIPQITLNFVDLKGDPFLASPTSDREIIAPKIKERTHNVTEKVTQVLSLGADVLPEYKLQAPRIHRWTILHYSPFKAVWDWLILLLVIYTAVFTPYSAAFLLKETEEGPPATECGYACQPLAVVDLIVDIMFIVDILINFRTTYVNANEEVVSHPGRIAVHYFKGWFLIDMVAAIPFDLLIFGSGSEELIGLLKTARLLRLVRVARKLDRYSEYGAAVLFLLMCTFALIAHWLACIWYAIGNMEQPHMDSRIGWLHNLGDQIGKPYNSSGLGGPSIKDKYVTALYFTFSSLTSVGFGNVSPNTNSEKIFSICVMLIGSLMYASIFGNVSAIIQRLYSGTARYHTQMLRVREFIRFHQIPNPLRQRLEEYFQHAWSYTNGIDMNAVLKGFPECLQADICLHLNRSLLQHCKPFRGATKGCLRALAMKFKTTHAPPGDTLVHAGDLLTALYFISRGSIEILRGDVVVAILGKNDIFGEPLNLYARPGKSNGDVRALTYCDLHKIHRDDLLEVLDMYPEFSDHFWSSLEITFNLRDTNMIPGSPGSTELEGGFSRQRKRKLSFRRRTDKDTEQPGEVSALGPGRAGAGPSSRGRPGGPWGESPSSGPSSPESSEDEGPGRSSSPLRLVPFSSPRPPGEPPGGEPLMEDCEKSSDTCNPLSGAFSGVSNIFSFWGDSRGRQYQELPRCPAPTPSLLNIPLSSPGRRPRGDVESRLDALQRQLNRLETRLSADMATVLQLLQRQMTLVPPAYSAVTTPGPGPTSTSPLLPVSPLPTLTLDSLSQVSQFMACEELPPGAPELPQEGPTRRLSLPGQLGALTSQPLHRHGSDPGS
row,Compound,"hERG current change (%, negative = inhibition) at 10uM"
1,COc1ccc(CC(=O)N2CCN=C2SC)cc1,13%
2,CCCCn1c(N)c(NCc2ccccc2OC)c(=O)[nH]c1=O,12.2%
3,Br.Cn1c(=N)n(CC(=O)c2ccccc2)c2ccccc21,-12.4%
4,O=S(=O)(NCCc1ccccc1)c1ccc(Cl)nc1,10.9%
5,Cc1cccc(N(Cc2ccccc2)C(=O)c2ccccc2S(C)(=O)=O)c1,6.57%
6,c1coc(-c2nc3nc4ccccc4n3nc2-c2ccco2)c1,12.8%
7,Cc1ccc(NC(=O)CS(=O)CC(=O)N2CCN(C3CCCC3)CC2)cc1 (stereo not drawn),15.8%
8,CC1CCN(S(=O)(=O)c2cn(CC(=O)N3CC(C)CC(C)C3)c(=O)c3ccccc23)CC1 (stereo not drawn),6.32%
9,Cc1cc(C)[n+]2n1C(=O)C(c1ccccc1)=C2[O-],6.67%
10,CC(C)(C)NC(=O)c1cccc(NC(=O)c2cccc(O)c2)c1,5.93%
11,Cc1ccn(CCC(=O)N2CCc3ccccc32)n1,15.4%
12,Fc1ccccc1CNC(=S)NCc1ccc(Cl)cc1,6%
13,Cc1ccc(NC(=O)c2ccc3c(c2)nnn3C)cc1,12%
14,COc1ccc(-c2cc(-c3ccccc3O)[nH]n2)cc1,10.3%
15,COc1ccc(/C=C/C(=O)O)cc1S(=O)(=O)N1CCc2ccccc2C1,9.41%
16,Cc1ccc(SCC(=O)N/N=C/c2ccco2)cc1,0.766%
17,Cn1nnc(NC(=S)NC(=O)c2cccc3ccccc23)n1,27.8%
18,COc1ccc(C2=NCC(CSc3nccc(=O)[nH]3)S2)cc1 (stereo not drawn),1.52%
19,CC1CCC2(CC1)NC(=O)N(CC(=O)c1cn(CCC#N)c3ccccc13)C2=O (stereo not drawn),-13.8%
20,CCOC(=O)C1CCCN(c2c(NCCc3ccc(S(N)(=O)=O)cc3)c(=O)c2=O)C1 (stereo not drawn),-1.91%
21,CCCCS(=O)c1c(O)c2ccccc2[nH]c1=O (stereo not drawn),15.3%
22,Cc1ccc(NC(=O)c2ccc3snnc3c2)cc1,13.4%
23,CC(O)(CS(=O)(=O)Cc1ccccc1)C(=O)Nc1ccc(C(F)(F)F)cc1 (stereo not drawn),-0.8%

row,Compound,"hERG current change (%, negative = inhibition) at 10uM"
1,C/C(=C\C(=O)c1ccc(C)cc1)Nc1cccc(O)c1,3.17%
2,COC(=O)Cn1ncc2c3ccccc3n(C)c2c1=O,4.05%
3,O=S1(=O)NC(C2CC2c2ccccc2)CCO1 (stereo not drawn),-0.374%
4,Cc1cc(/N=C/N(C)C)on1,29%
5,Cc1ccc(S(=O)(=O)N(C)CC(=O)Nc2nnc(CC(C)C)s2)cc1,-4.11%
6,Cn1c2c(c(=O)[nH]c1=O)C(c1ccc(O)cc1)C1=C(N2)c2ccccc2C1=O (stereo not drawn),-5.73%
7,O=C(CSc1nncn1-c1cccnc1)N(c1ccccc1)c1ccccc1,4.28%
8,CC(=O)N1CCc2c(sc(NC(=O)CCS(=O)(=O)c3ccccc3)c2C(N)=O)C1,5.3%
9,COc1ccc(-c2csc(N(CCCN(C)C)C(=O)c3ccc(C(C)(C)C)cc3)n2)cc1.Cl,18%
10,CCCC(C(=O)NC1CCCC1)N(C(=O)c1snc(C(N)=O)c1N)c1ccc(OCC)cc1 (stereo not drawn),-25.6%
11,N#Cc1ccc(N/N=C/c2cn(-c3ccccc3)nc2-c2ccccc2)c([N+](=O)[O-])c1,-3.35%
12,COc1ccc2cc(CN(CC3COCCO3)S(=O)(=O)c3ccc(Cl)cc3)c(=O)[nH]c2c1 (stereo not drawn),9.87%
13,CCc1ccc(OCc2nnc(SCC(=O)Nc3cccc(C(=O)N4CCOCC4)c3)o2)cc1,-61.4%
14,Cc1cc(C)c2sc(NC(=O)c3ccc([N+](=O)[O-])o3)nc2c1,-19.6%
15,CCOC(=O)NC(=O)c1cn(N(C)c2ncc(C(F)(F)F)cc2Cl)c(=O)[nH]c1=O,-5.85%
16,O=C(NNC(=S)NC1CC2C=CC1C2)c1ccncc1 (stereo not drawn),16.4%
17,COc1cccc(CNCCO)c1OCc1ccc(Cl)cc1.Cl,-18%
18,Cc1nn(-c2ccccc2)c(C)c1/C=N\NS(=O)(=O)c1ccc(Cl)cc1,-17.7%
19,O=C(CCNS(=O)(=O)c1ccc(Br)cc1)NCCCSc1ccccc1,-4.84%
20,O=C(N/N=C/c1ccccc1O)C(=O)N1CCCCCC1,7.3%
21,Cn1c(O)c(C(=O)c2ccccc2Cl)c(=O)n(C)c1=O,-6.25%
22,Cc1cc(C)n(CCC(=O)N2CCc3ccccc32)n1,2.96%
23,Nc1ncc(Br)cc1S(=O)(=O)NCCC(=O)N1CCN(c2ccccn2)CC1,-55.4%

row,Compound,"hERG current change (%, negative = inhibition) at 10uM"
1,Cc1cc2oc(=O)cc(CN3CCCCC3C)c2c(C)c1Cl (stereo not drawn),11%
2,CSc1ccc(C(=O)C2CCCN(CCCn3cccn3)C2)cc1 (stereo not drawn),-76.8%
3,O=C(c1ccccc1)C1CCc2occc2C1=O (stereo not drawn),-12.2%
4,CC(=O)c1cccc(NC(=S)NC2CCCCCCC2)c1,9.26%
5,Cc1onc(-c2ccccc2)c1NC(=O)Nc1c(-c2ccccc2)noc1C,8.89%
6,CC(=O)N/C(=C\c1ccc2c(c1)OCO2)C(=O)NC(C(=O)O)c1ccccc1 (stereo not drawn),18.8%
7,Nc1nc(SCC(=O)Nc2ccccc2C(F)(F)F)[nH]c(=O)c1-c1ccccc1,7.7%
8,O=C(Nc1cccc(C(=O)O)c1)/C(=C/c1ccc2c(c1)OCO2)NC(=O)c1cccc(Br)c1,7.35%
9,CSCCC(NC(N)=O)C(=O)NCc1ccc(Cl)cc1 (stereo not drawn),5.44%
10,C[C@H](NC(=O)c1ccc2c(c1)OCO2)c1nnc2ccccn12,15.6%
11,COCCCN1C(=O)c2ccc(C(=O)OCC(=O)NCCc3ccccc3)cc2C1=O,5.99%
12,O=C(Cc1c(F)cccc1Cl)Nc1ccccc1C(=O)N1CCOCC1,3.32%
13,Cc1cccc(C)c1OCc1cc(C(=O)N2CCN(c3ccc(F)cc3)CC2)no1,5.65%
14,CN(C)CCNC(=O)C(=O)NCC1OCCN1S(=O)(=O)c1cc(F)ccc1F (stereo not drawn),9.66%
15,Cc1ccc(NC(=O)CSc2nnc(Cc3ccccc3)c(=O)[nH]2)c(C)c1,-51.4%
16,Cc1noc(C)c1CSCC(=O)Nc1nc2ccc(S(C)(=O)=O)cc2s1,14.6%
17,CCCNC(=O)c1n[nH]c2c1CC(C(C)(C)CC)CC2 (stereo not drawn),1.27%
18,Cn1c(C(=O)N2CCC(C(=O)N3CCOCC3)CC2)cc2sccc21,7.59%
19,Cc1ccc(CNC(=O)C2CCN(c3nc(C)cc(C)n3)CC2)cc1,-5.54%
20,Cc1ccccc1NC(=O)C1CCN(S(=O)(=O)c2cccs2)CC1,-12.5%
21,O=C(O)c1cnc2ccccc2n1,19.8%
22,Clc1ccc(OCC#CCN2CCCC2)cc1.O=C(O)C(=O)O,-27.4%
23,CC(=O)c1cc2c(cc1NC(=O)C1CCC1)OCO2,17.6%

row,Compound,"hERG current change (%, negative = inhibition) at 10uM"
1,COc1ccc(Nc2nc(NCc3ccco3)nc(N3CCOCC3)n2)cc1,16.1%
2,CCc1cc2c(NCC(=O)O)ncnc2s1,7.76%
3,CCCNc1c(NS(=O)(=O)c2ccc(NC(=O)CC)cc2)c(=O)oc2ccccc12,-38.2%
4,CCCCOc1ccc(/C=C/C(=O)Nc2ccc([N+](=O)[O-])cc2C)cc1,2.18%
5,CCn1c(=O)cc(SCC(=O)Nc2ccc3c(c2)OCO3)c2ccccc21,-17.5%
6,COc1ccc(CNc2nc(-c3ccccc3)nn2C(=O)c2ccc([N+](=O)[O-])cc2)cc1,2.93%
7,O=C(NC1CCCCC1)c1ccc(Cn2cc(Cl)cn2)cc1,-21.2%
8,Cc1cc(C)n(-c2ccc(C(=O)N3CC(C)OC(C)C3)cc2)n1 (stereo not drawn),17.5%
9,O=C(O)c1ccc(Nc2ccc3nonc3c2[N+](=O)[O-])cc1,16.7%
10,CCN(CC(=O)Nc1c(F)cccc1F)C(=O)CCN1C(=O)C2CCCCC2C1=O (stereo not drawn),16.7%
11,Cc1nc(-c2ccc(S(=O)(=O)Nc3cc(S(=O)(=O)N(C)C)ccc3C)s2)cs1,-3.19%
12,CC(=O)NC(CC(C)C)C(=O)NC(=O)NCc1ccccc1 (stereo not drawn),-1.58%
13,COCCNC(=O)CN1N=C(c2ccc(C)cc2)CCC1=O,-47.9%
14,O=C(NC1CCCCC1)N1CCN(c2nc(-c3ccccc3)cs2)CC1,9.02%
15,CCN1CCN(C(=S)Nc2ccc(C(C)=O)cc2)CC1,30.5%
16,O=c1cc(NCCc2ccccc2)c2ccccc2o1,34.2%
17,O=C(O)c1cn(-c2ccccc2)nc1-c1ccc(F)cc1,23.6%
18,O=C(NCc1ccc2c(c1)OCO2)C1CCN(c2ncccn2)CC1,0.299%
19,CCOC(=O)CN1C(=O)N(CC)C(C)=C(C(=O)OC)[C@@H]1c1ccccc1,4.35%
20,Cc1ccsc1C(=O)N(CC(C)C)c1c(N)n(Cc2ccccc2)c(=O)[nH]c1=O,9.63%
21,CCc1ccccc1NC(=O)CN(C)C(=O)c1cc(C2CC2)nc2c1cnn2C(C)C,11.5%
